{
  "source": "PubChem BioAssay AID504706",
  "about": "(National Center for Advancing Translational Sciences (NCATS), 2011)",
  "note": "Screen size: about 320,000 compounds; about 200 (0.062%) were called active. The inconclusive results got no clear call from the source; some entries with a clear call stand among them for comparison. Calls follow the shape of the dose curve; as a rule, active = well fitted activation curve with a large enough effect; inconclusive = small, poorly fitted or top-dose-only effect; inactive = no such curve, though single readings can be large or run the other way. No potency is given beside an inconclusive call; the fits are too rough. Potency is read from the fitted curve at half-maximal effect; tags tell the direction and shape of the fitted curve.",
  "data": [
    {"assay": "qHTS assay for re-activators of p53 using a Luc reporter; also: nearly all actives have a fitted effect of over 45% in size", "conditions": "H1299 p53-A138V BP100-luciferase reporter, luminescence, 24 h; series mostly up to 92.2 µM", "procedure,_shortened": "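p53-null H1299 cells stably carrying temperature-sensitive p53-A138V and a BP100-luciferase reporter were pinned with compounds (4-point, 1:5 series) and held 24 hrs at 37 deg C. Luminescence was read 10 min after detection reagent.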", "values": [
      {"compound": "CCOC(=O)c1ccc2nc(Nc3nc4ccc(F)cc4s3)sc2c1", "Potency": "inconclusive [activator, full curve, poor fit]"},
      {"compound": "COc1ccccc1C(=O)NCCC(=O)NC1CCC(C)CC1", "note": "(centres undefined)", "Potency": "inconclusive [activator, full curve, poor fit]"},
      {"compound": "O=c1c2c(nc3cc(-c4ccc(F)cc4)[nH]n13)CCCC2", "Potency": "inactive"},
      {"compound": "O=C(COC(=O)c1ccccc1O)Nc1ccc(N2CCOCC2)cc1", "Potency": "inconclusive [activator, partial curve, poor fit]"},
      {"compound": "Cc1ccccc1NC(=S)NCCO", "Potency": "inconclusive [activator, single point]"},
      {"compound": "COc1cc(OC)c(OC)cc1CN(C)CC1CCCN(CCc2ccccc2F)C1", "note": "(centres undefined)", "Potency": "inconclusive [activator, partial curve, poor fit]"},
      {"compound": "O=C(CSC1=NCCS1)Nc1nc2ccccc2s1", "Potency": "inconclusive [activator, partial curve, poor fit]"},
      {"compound": "O=C(Nc1ccsc1C(=O)O)c1cccc(Oc2ccccc2)c1", "Potency": "inconclusive [activator, partial curve, poor fit]"},
      {"compound": "C/C(N)=C(/C#N)C(=O)CSc1ccc2c(c1)OCCO2", "Potency": "active: 39.8 µM"},
      {"compound": "Cc1c(Cl)cccc1NC(=S)NC1CCCC1", "Potency": "inconclusive [activator, single point]"},
      {"compound": "CC1CCN(c2oc(-c3ccccc3Cl)nc2C#N)CC1", "Potency": "inconclusive [activator, full curve, poor fit]"},
      {"compound": "O=C(N/N=C/c1ccccc1C(F)(F)F)c1ccc2nc[nH]c2c1", "Potency": "inactive"},
      {"compound": "COc1ccc(S(=O)(=O)N2CCCCC2)cc1NC(=O)Cc1c[nH]c2ccccc12", "Potency": "inconclusive [activator, single point]"},
      {"compound": "Cc1ccc(SCC(=O)Nc2ccc(N3CCN(C)CC3)c(F)c2)cc1", "Potency": "inconclusive [activator, partial curve, poor fit]"},
      {"compound": "COc1ccccc1NS(=O)(=O)c1cccc(C(=O)N/N=C/c2cn(-c3ccccc3)nc2-c2ccccc2)c1", "Potency": "inactive"},
      {"compound": "CSc1ccccc1C(=O)Nc1nc2ccccc2[nH]1", "Potency": "inconclusive [activator, partial curve, poor fit]"},
      {"compound": "O=C(c1ccc([N+](=O)[O-])cc1)n1nc(-c2ccccc2)nc1NCc1ccccc1", "Potency": "inconclusive [activator, full curve, poor fit]"},
      {"compound": "CCCCOc1ccc(-c2ncc(C(=O)OCC)c(N)n2)cc1", "Potency": "inconclusive [activator, partial curve, poor fit]"},
      {"compound": "COc1ccccc1-c1noc(-c2ccncc2)n1", "Potency": "inconclusive [activator, partial curve, poor fit]"},
      {"compound": "CCC(=O)C1CCCN(C(=O)CCc2nnc(-c3ccc(C(C)=O)s3)o2)C1", "note": "(centres undefined)", "Potency": "inconclusive [activator, partial curve, poor fit]"},
      {"compound": "O=C(/C=C/c1ccc([N+](=O)[O-])s1)N1CCCCC1", "Potency": "inconclusive [activator, partial curve, poor fit]"},
      {"compound": "CCN1CCN(C(c2cccs2)C(C)NC(=O)c2cccc(OC)c2OC)CC1", "note": "(centres undefined)", "Potency": "inconclusive [activator, single point]"},
      {"compound": "COc1cc(OC)cc(C(=O)Nc2ccccc2-c2nnn(CC(=O)Nc3cc(C)on3)n2)c1", "Potency": "inactive"},
      {"compound": "CC(=O)NS(=O)(=O)c1ccc(NC(=O)c2cc(-c3ccc(C)cc3)nc3ccccc23)cc1", "Potency": "inactive"},
      {"compound": "COc1ccc(/C=C2/SC(=S)N(CCCC(=O)Nc3cccc(O)c3)C2=O)cc1", "Potency": "inconclusive [activator, full curve, poor fit]"},
      {"compound": "Cc1ccc(CNC(=O)c2ccc3nc4[nH]c5ccccc5c4nc3c2)cc1", "Potency": "inactive"},
      {"compound": "CCCn1nnc(NC(=S)NC(=O)c2ccc(-c3ccc(Br)cc3)o2)n1", "Potency": "inactive"},
      {"compound": "O=C(NCCc1ccccn1)c1ccc(OC(F)F)cc1", "Potency": "inactive"},
      {"compound": "C(=N\\Nc1nc(Nc2ccccc2)nc(N2CCOCC2)n1)/c1c[nH]c2ccccc12", "Potency": "inactive"},
      {"compound": "Cc1ccc(N2CCN(/N=C/c3cccnc3)CC2)cc1", "Potency": "inactive"},
      {"compound": "O=C1CN(C(=O)COC(=O)c2cccc(OCc3ccccc3)c2)c2ccccc2N1", "Potency": "inconclusive [activator, single point]"},
      {"compound": "CCc1ccc(NC(=O)COC(=O)CCC2CCCC2)cc1", "Potency": "inconclusive [activator, partial curve, poor fit]"},
      {"compound": "Nn1c(=O)c2ccccc2n2c(SCc3ccccc3)nnc12", "Potency": "inconclusive [activator, single point]"},
      {"compound": "Cc1ccc(C(=O)CSc2nsc(C)c2C#N)cc1", "Potency": "inconclusive [activator, partial curve, poor fit]"},
      {"compound": "COC(=O)Cc1ccc(NC(=O)c2ccc3c(c2)C(=O)N(Cc2cccnc2)C3=O)cc1", "Potency": "inactive"},
      {"compound": "COc1ccc(-c2c(C)nc3c(-c4ccsc4)cnn3c2N)cc1", "Potency": "inconclusive [activator, full curve, poor fit]"},
      {"compound": "Cc1ccc(SCCc2ccc(C)nc2)cc1", "Potency": "inconclusive [activator, partial curve, poor fit]"},
      {"compound": "CC(=O)N(Cc1ccco1)c1nc(C(=O)Nc2ccc(Cl)cc2)c(C)s1", "Potency": "inconclusive [activator, full curve, poor fit]"},
      {"compound": "CC1(C)CC(C(N)=S)CCO1", "note": "(centres undefined)", "Potency": "inactive"},
      {"compound": "CCOC(=O)Cc1nn[nH]n1", "Potency": "inactive"},
      {"compound": "CC1(C)CC(=O)c2cc(OCC(=O)N3CCCCCC3)ccc2O1", "Potency": "inconclusive [activator, single point]"},
      {"compound": "O=C(Cc1ccc(Cl)cc1)Nc1ccc(NC(=O)c2ccccc2)cc1", "Potency": "inactive"},
      {"compound": "c1ccc([C@H]2CN3C(=N2)Sc2ccccc23)cc1", "Potency": "inconclusive [activator, full curve, poor fit]"},
      {"compound": "O=[N+]([O-])c1cc(S(=O)(=O)Nc2ccccc2)ccc1-n1nnc2ccccc21", "Potency": "inconclusive [activator, single point]"}
    ]}
  ]
}
